From the supplement of paper PMC9334596 come the findings set out here.

Each structure is given as a SMILES string. Where “and” joins values, the source holds several entries; their conditions need not be identical. Identical values can stand only once. In all, about 5,300 compounds were measured (“PER2::LUC luminescence relative to vehicle control”: median about 0.96, highest 2% from about 1.3 on). The list shows a part of the results.

In this assay the test system is mPer2Luc MEF. Briefly: PER2::LUC luminescence relative to vehicle control (fold of vehicle); higher = higher PER2::LUC reporter signal. Conditions: 10 µM. Summed up:
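The value is PER2::LUC luminescence expressed as fold of vehicle control. Mouse embryonic fibroblasts carrying the mPer2Luc reporter were seeded at ~3000 cells per well in 384-well plates and grown in DMEM with 10% FBS at 37 °C and 5% CO2. Compounds from commercial libraries were added at 10 μM 48 h after seeding, and luminescence was read with the ONE-Glo luciferase assay system 24 h and 30 h after treatment, followed by an alamarBlue viability assay.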

In the case of `CC(C)N(CCNC(=O)CN1CCCC1=O)C(C)C`, the “PER2::LUC luminescence” value by setting is: (time after treatment 24 h) 0.99; (time after treatment 30 h) 1.07.

Turning to `COc1cc2c(cc1OC)[C@H](C)NCC2`, the “PER2::LUC luminescence” value by setting is: (time after treatment 24 h) 0.865; (time after treatment 30 h) 0.957.

As to `CNCC(=O)c1ccc(O)c(O)c1`, the “PER2::LUC luminescence” value is, setting by setting: (time after treatment 24 h) 0.996; (time after treatment 30 h) 0.936. For `O=C(NC(=O)c1c(F)cccc1F)Nc1cc(Cl)c(OC(F)(F)C(F)C(F)(F)F)cc1Cl` (configuration not stated), the “PER2::LUC luminescence” value reads like this: (time after treatment 24 h) 1.11; (time after treatment 30 h) 1.15.

Consider `CCOC(=O)c1cc2c(cn1)[nH]c1ccccc12`, for which the “PER2::LUC luminescence” value worked out at 0.973 (time after treatment 24 h) and 0.966 (time after treatment 30 h).

Turning to `NNC(N)=O`, the “PER2::LUC luminescence” value reads like this: (time after treatment 24 h) 1.09; (time after treatment 30 h) 0.875.

Turning to `O=C[C@H](Cl)[C@@H](O)[C@H](O)[C@H](O)CO`, the “PER2::LUC luminescence” value is, setting by setting: (time after treatment 24 h) 0.918; (time after treatment 30 h) 1.14. On to `COc1ccc(Cc2nccc3cc(OC)c(OC)cc23)cc1OC`, for which the “PER2::LUC luminescence” value reads like this: (time after treatment 24 h) 0.68; (time after treatment 30 h) 0.652. `NCCCP(=O)(O)O`: the “PER2::LUC luminescence” value by setting is: (time after treatment 24 h) 1.06; (time after treatment 30 h) 1.08. In the same order, the values of `CNCCc1c[nH]c2ccc(O)cc12` are 0.889 and 0.932. In the same order, the values of `CNC1=Nc2ccc(Cl)cc2C(c2ccccc2)=[N+]([O-])C1` are 0.985 and 1.04. In the same order, the values of `CCC1(CC)C(=O)C=CNC1=O` are 1.04 and 0.975. Turning to `COc1cc2c(c(OC)c1OC)-c1ccc(=O)c(O)cc1[C@@H](NC(C)=O)CC2`, the “PER2::LUC luminescence” value came out at 1.07 (time after treatment 24 h) and 1.05 (time after treatment 30 h).

For `O=C(N/N=C/c1ccc([N+](=O)[O-])o1)c1cc([N+](=O)[O-])cc([N+](=O)[O-])c1O`, the “PER2::LUC luminescence” value by setting is: (time after treatment 24 h) 0.918; (time after treatment 30 h) 0.876. Turning to `C[C@]12CC[C@H]3[C@@H](CC[C@@]45O[C@@H]4C(O)=C(C#N)C[C@]35C)[C@@H]1CC[C@@H]2O`, the “PER2::LUC luminescence” value reads like this: (time after treatment 24 h) 1.01; (time after treatment 30 h) 0.933. In the same order, the values of `C[C@]1(O)CC[C@H]2[C@@H]3CCC4=CC(=O)CC[C@]4(C)[C@@]3(F)[C@@H](O)C[C@@]21C` are 0.978 and 1.06. In the same order, the values of `COc1ccc2c3c4n(c2c1)[C@H](C=C(C)C)OOC(C)(C)C[C@@H]4N1C(=O)[C@@H]2CCCN2C(=O)[C@]1(O)[C@H]3O` are 1.02 and 0.995. In the same order, the values of `O=C1CSC(c2ccccc2Cl)c2cc(Cl)ccc2N1` (configuration not stated) are 1.04 and 1. Regarding `NNC(=O)c1ccc(O)cc1`, the “PER2::LUC luminescence” value (time after treatment 24 h) turned out to be 1.08 and the “PER2::LUC luminescence” value (time after treatment 30 h) came to 1.08.

For the compound `CN(C)NC(=O)CCC(=O)O`, the “PER2::LUC luminescence” value is, setting by setting: (time after treatment 24 h) 1.05; (time after treatment 30 h) 1.02. In the same order, the values of `O=[N+]([O-])c1ccc([As](=O)(O)O)cc1` are 1.13 and 0.866. In the same order, the values of `CCN(C(C)=O)c1cccc(-c2ccnc3c(C#N)cnn23)c1` are 0.968 and 0.978. In the same order, the values of `NCCc1c[nH]c2ccc(O)cc12` are 0.925 and 0.97. With `CNC(C)[C@H](O)c1ccccc1` (some centres not stated), the “PER2::LUC luminescence” value reads like this: (time after treatment 24 h) 1.03; (time after treatment 30 h) 0.928. Regarding `CCC(COC(=O)c1cc(OC)c(OC)c(OC)c1)(c1ccccc1)N(C)C` (configuration not stated), the “PER2::LUC luminescence” value reads like this: (time after treatment 24 h) 0.946 and 0.824; (time after treatment 30 h) 0.986 and 0.789. For `C[C@]12CC[C@H](O)CC1=CC[C@@H]1[C@@H]2CC[C@@]2(C)[C@H]1CC[C@]2(C)O`, the “PER2::LUC luminescence” value came out at 0.959 (time after treatment 24 h) and 0.777 (time after treatment 30 h). Consider `C/C=C(\C)C(=O)N[C@@H](c1ccccc1)[C@@H](O)C(=O)O[C@H]1C[C@@]2(O)[C@@H](OC(=O)c3ccccc3)[C@@H]3[C@]4(OC(C)=O)CO[C@@H]4C[C@H](O)[C@@]3(C)C(=O)[C@H](OC(C)=O)C(=C1C)C2(C)C`, for which the “PER2::LUC luminescence” value (time after treatment 24 h) turned out to be 0.467 and the “PER2::LUC luminescence” value (time after treatment 30 h) turned out to be 0.448.

For the compound `COc1ccc2c(c1)/C(=C/c1cnc[nH]1)C(=O)N2`, the “PER2::LUC luminescence” value (time after treatment 24 h) turned out to be 1.04 and the “PER2::LUC luminescence” value (time after treatment 30 h) stood at 1.14. As for `COc1ccc(C[C@H]2NC[C@H](O)[C@H]2OC(C)=O)cc1`, the “PER2::LUC luminescence” value runs as follows: (time after treatment 24 h) 1.15; (time after treatment 30 h) 1.02. Consider `CCCN(CCC)CCc1ccc(O)c(O)c1`, for which the “PER2::LUC luminescence” value (time after treatment 24 h) is 0.848 and the “PER2::LUC luminescence” value (time after treatment 30 h) worked out at 0.909.

Consider `CC1(C)C(C=C(Cl)Cl)C1C(=O)OCc1cccc(Oc2ccccc2)c1` (configuration not stated), for which the “PER2::LUC luminescence” value was determined as 1.08 (time after treatment 24 h) and 0.813 (time after treatment 30 h).

Regarding `Cc1ccc(O)cc1.Cc1cccc(O)c1.Cc1ccccc1O`, the “PER2::LUC luminescence” value turned out to be 0.934 (time after treatment 24 h) and 0.923 (time after treatment 30 h).

With `CCNC1(c2cccs2)CCCCC1=O` (configuration not stated), the “PER2::LUC luminescence” value was 0.834 (time after treatment 24 h) and 0.783 (time after treatment 30 h). In the same order, the values of `C[C@@H]1CC[C@H]2[C@@H](C)C(=O)O[C@@H]3O[C@@]4(C)CC[C@@H]1[C@]32OO4` are 0.995 and 1.05. In the same order, the values of `OC1(c2ccc(Cl)cc2)c2ccccc2C2=NCCN21` (configuration not stated) are 0.954 and 0.914.

As to `CC[C@H]1[C@@H]2C[C@H]3[C@@H]4N(C)c5ccccc5[C@]45C[C@@H]([C@@H]2[C@H]5O)N3[C@@H]1O`, the “PER2::LUC luminescence” value runs as follows: (time after treatment 24 h) 1.04; (time after treatment 30 h) 0.956. Turning to `CS(=N)(=O)CC[C@H](N)C(=O)O` (some centres not stated), the “PER2::LUC luminescence” value runs as follows: (time after treatment 24 h) 1.05 and 0.967; (time after treatment 30 h) 0.815 and 0.882.

Regarding `CCC1(c2cccc(O)c2)CCCCN(C)C1` (configuration not stated), the “PER2::LUC luminescence” value (time after treatment 24 h) is 0.933 and the “PER2::LUC luminescence” value (time after treatment 30 h) stood at 0.857.

Take `CC1=CC(=O)C2=C(C)C[C@H](O)[C@@H]3[C@H](OC(=O)[C@H]3C)[C@@H]12`: the “PER2::LUC luminescence” value was found to be 1.05 (time after treatment 24 h) and 1.04 (time after treatment 30 h). In the same order, the values of `COc1ccc(C(=O)O[C@H]2CC[C@@]3(C)[C@@H]4CC[C@H]5[C@]6(O)C[C@H](O)[C@@]7(O)[C@@H](CN8C[C@@H](C)CC[C@H]8[C@@]7(C)O)[C@]6(O)C[C@@]53O[C@]24O)cc1OC` are 0.999 and 1.07. Consider `CNC(C)C(O)c1ccccc1` (configuration not stated), for which the “PER2::LUC luminescence” value (time after treatment 24 h) was 0.933 and the “PER2::LUC luminescence” value (time after treatment 30 h) was 0.942. Take `C[C@@H]1CN(Cc2ccc(F)cc2)CCN1C(=O)COc1ccc(Cl)cc1NC(N)=O`: the “PER2::LUC luminescence” value is 0.403 and 0.234 (time after treatment 24 h); 0.333 and 0.355 (time after treatment 30 h). Consider `CC(C)(C)NCC(O)COc1cccc2[nH]c(C#N)cc12` (configuration not stated), for which the “PER2::LUC luminescence” value (time after treatment 24 h) stood at 0.891 and the “PER2::LUC luminescence” value (time after treatment 30 h) was found to be 0.75. As to `CC[C@H]1CN2CCc3cc(OC)c(OC)cc3[C@@H]2C[C@@H]1C[C@H]1NCCc2cc(OC)c(OC)cc21`, where the note is “time after treatment 24 h”, the “PER2::LUC luminescence” value is 0.0089 and 0.006.

As for `COc1cc([C@@H]2c3cc4c(cc3[C@H](O)[C@H]3COC(=O)[C@H]23)OCO4)cc(OC)c1OC`, the “PER2::LUC luminescence” value is, setting by setting: (time after treatment 24 h) 0.417 and 0.292; (time after treatment 30 h) 0.535 and 0.517. As to `OCC(Br)(Br)Br`, the “PER2::LUC luminescence” value runs as follows: (time after treatment 24 h) 1.01; (time after treatment 30 h) 1.06.

In the case of `O=C1NC(=O)C(=O)C(=O)N1`, the “PER2::LUC luminescence” value reads like this: (time after treatment 24 h) 0.993; (time after treatment 30 h) 0.912. As to `NC(=O)[C@H](Cc1ccccc1)NC(=O)[C@H](Cc1ccccc1)NC(=O)[C@@H]1CCCN1C(=O)[C@@H](N)Cc1ccc(O)cc1`, the “PER2::LUC luminescence” value is, setting by setting: (time after treatment 24 h) 0.999; (time after treatment 30 h) 0.889. In the same order, the values of `CC(C)C[C@H](CN)CC(=O)O` are 0.807 and 1.1. In the same order, the values of `CCC(C)(C)O` are 0.999 and 0.969. For the compound `C[C@@]1(CO)[C@H](O)CC[C@@]2(C)[C@H]1CC[C@H]1C[C@@H]3C[C@@]12CC[C@]3(O)CO`, the “PER2::LUC luminescence” value by setting is: (time after treatment 24 h) 0.752; (time after treatment 30 h) 0.656. In the same order, the values of `CC1(C(=O)O)C2CCC(O2)C1(C)C(=O)O` (configuration not stated) are 1.12 and 0.846. In the same order, the values of `CCCN(CCC)[C@@H]1CCc2c(OC)cccc2[C@@H]1C` are 0.943 and 0.875. In the same order, the values of `CC(C)(C)NCC(O)c1ccccc1Cl` (configuration not stated) are 0.906 and 0.931. As for `Cc1cccc([C@H](C)c2c[nH]cn2)c1C`, the “PER2::LUC luminescence” value is 1.18 and 1.08 (time after treatment 24 h); 1.25 and 1.07 (time after treatment 30 h). For the compound `C[C@]12Cc3c[nH]nc3C[C@@H]1CC[C@@H]1[C@@H]2CC[C@@]2(C)[C@H]1CC[C@]2(C)O`, the “PER2::LUC luminescence” value was determined as 1.1 (time after treatment 24 h) and 1 (time after treatment 30 h).

Turning to `Cc1nnc2ccc(-c3cccc(C(F)(F)F)c3)nn12`, the “PER2::LUC luminescence” value (time after treatment 24 h) is 0.905 and the “PER2::LUC luminescence” value (time after treatment 30 h) amounted to 0.873.

Turning to `COc1cc2c(cc1-c1cc3cc4ccoc4cc3oc1=O)OCO2`, the “PER2::LUC luminescence” value was 1.11 (time after treatment 24 h) and 1.09 (time after treatment 30 h).

In the case of `COc1ccc2c(c1)CN(C)CC2c1ccc(Cl)c(Cl)c1` (configuration not stated), the “PER2::LUC luminescence” value (time after treatment 24 h) was determined as 1.03 and the “PER2::LUC luminescence” value (time after treatment 30 h) came out at 0.863.
